# Experimental data reported in PubChem BioAssay (Tox21).
# Several values for one entry are separate records, joined by “and”; a condition that tells them apart may be missing. Equal values may be shown once. Inconclusive means that the source gave no clear call. Such entries were picked first, then a sample of the others. For some of these results: Potencies beside an inconclusive call are fits to weak or partial responses and may not hold up. The source holds several records for some structures; these can differ, active in one and inactive in another. Activity calls are given as the source filed them. Unless noted, calls come from the whole dose curve; as a rule, active = well fitted curve in the direction sought with a large enough effect in the repeat runs; inconclusive = weak or mixed curves; inactive = no such curve, though single readings can be large; an effect the other way counts as inactive or inconclusive.
# Tests used:
# [1] = target: Progesterone receptor (Homo sapiens) (UniProt P06401); assay: qHTS assay to identify small molecule agonists of the progesterone receptor (PR) signaling pathway (AID 1346784; calls by dose curve; note: nearly all actives have a fitted effect of over 30% in size; for activation: % is set by controls: 0 for no effect and ±100 for the full control effect); conditions: PR-UAS-bla HEK293T, beta-lactamase FRET ratio, 16 h; activation: at 92.4 µM (top of the series) unless noted
# Procedure, shortened: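 Cells (PR-UAS-bla HEK 293T, GripTite) were plated in assay medium containing 2% charcoal-stripped FBS and incubated 6 hr. Test compounds in DMSO were added for 16 hr at 37C. FRET substrate was then loaded for 2 hr at room temperature before fluorescence reading.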
# [2] = target: Progesterone receptor (Homo sapiens) (UniProt P06401); assay: qHTS assay to identify small molecule antagonists of the progesterone receptor (PR) signaling pathway (AID 1346795; active = well fitted inhibition curve with a large enough effect in the signal ratio in the repeat runs, not every such curve was filed as active; inconclusive = weak or mixed curves; the % refers to the signal ratio; for activity change, negative = inhibition: % is set by controls: 0 for no effect and ±100 for the full control effect); conditions: PR-UAS-bla HEK293T, beta-lactamase FRET ratio, 16 h; activity change, negative = inhibition: at 92.4 µM (top of the series) unless noted
# Procedure, shortened: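 Antagonist mode: compounds tested against 1 nM (final) promegestone stimulation in HEK293T cells expressing PR-UAS-bla reporter, 16 hr at 37C, 5% CO2; beta-lactamase activity detected via B/G FRET substrate after 2 hr at room temperature.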
# [3] = qHTS assay to identify small molecule agonists of the progesterone receptor (PR) signaling pathway - cell viability counter screen (AID 1346799; calls by dose curve; note: nearly all actives have a fitted effect of over 45% in size)
# Procedure, shortened: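 Cells (PR-UAS-bla HEK293T) are plated at 3,000/well in 2% charcoal-stripped FBS medium, rested 6 hr, dosed and incubated 16 hr at 37C. CellTiter-Glo is then added and luminescence measured after 30 min at room temperature.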
# [4] = qHTS assay to identify small molecule agonists of the TGF-beta/Smad signaling pathway (AID 1346859; active = well fitted activation curve with a large enough effect in the signal ratio in the repeat runs, not every such curve was filed as active; inconclusive = weak or mixed curves; the % refers to the signal ratio); conditions: SBE-bla HEK293T, TGF-beta/Smad beta-lactamase reporter, 5 h; activation: at 76.8 µM (top of the series)
# Procedure, shortened: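 Reporter line: HEK 293T with stably integrated SBE-controlled beta-lactamase. Compound exposure lasts 5 hr at 37 C and 5% CO2; substrate loading follows for 2 hr at room temperature, with emission read at 460 and 530 nm.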
# [5] = qHTS assay to identify small molecule agonists of the estrogen receptor alpha (ER-alpha) signaling pathway in the presence of an antagonist - cell viability counter screen (AID 1259386);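 note: cells exposed to compounds for 22 h at 37 °C before the viability read; nearly all actives have a fitted effect of over 30% in size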
# Procedure, shortened: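 VM7Luc4E2 cells (endogenous full-length ER-alpha, 4×ERE-luciferase) were held 5 days in phenol red-free medium with 10% charcoal-stripped FBS, plated, then given 10.0nM ICI-182,780 and compounds at 15 concentrations for 22hr at 37C; viability read by CellTiter-Fluor fluorescence.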
# [6] = qHTS assay to identify small molecule antagonists of the TGF-beta/Smad signaling pathway - cell viability counter screen (AID 1346824); note: nearly all actives have a fitted effect of over 50% in size
# Procedure, shortened: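 Cytotoxicity counter-screen run in the same wells as the beta-lactamase Smad reporter read: CellTiter-Glo luminescence after 30 min at room temperature. HEK 293T SBE-bla cells had 5 hr compound exposure at 37 C with TGF-beta1 (0.25 ng/mL stock).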
# [7] = Human pregnane X receptor (PXR) small molecule agonists, qHTS cell viability counter screen (AID 1346977); note: nearly all actives have a fitted effect of over 50% in size
# Procedure, shortened: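 Cytotoxicity counter screen run in the same wells as the PXR luciferase assay, using PXR-Luc HepG2 cells in charcoal-stripped serum medium. Viability: CellTiter-Fluor fluorescence after 24hr compound treatment.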
# [8] = qHTS assay to identify small molecule antagonists of the progesterone receptor (PR) signaling pathway - cell viability counter screen (AID 1346798); note: nearly all actives have a fitted effect of over 50% in size
# Procedure, shortened: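 Counter screen for cytotoxicity: viability of PR-UAS-bla HEK293T cells was measured with CellTiter-Glo luminescence following 16 hr compound exposure in the presence of R5020.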
# [9] = target: Thyrotropin-releasing hormone receptor (Homo sapiens) (UniProt P34981); assay: qHTS assay to identify small molecule agonists of the thyrotropin-releasing hormone receptor (TRHR) signaling pathway (AID 1346891; calls by dose curve)
# Procedure, shortened: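 Cells: TRHR-Hek293, seeded and incubated 18 h. Dye loading: 2 h at 37 °C. Compound added from DMSO stock by pin tool. Read-out: kinetic calcium fluorescence over 3 min.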
# [10] = qHTS assay to identify small molecule antagonists of the TGF-beta/Smad signaling pathway (AID 1346924; active = well fitted inhibition curve with a large enough effect in the signal ratio in the repeat runs, not every such curve was filed as active; inconclusive = weak or mixed curves; the % refers to the signal ratio); conditions: SBE-bla HEK293T, TGF-beta/Smad reporter, beta-lactamase ratio; activity, negative = inhibition: at 76.8 µM (top of the series) unless noted
# Procedure, shortened: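 SBE-bla HEK 293T cells were plated overnight, then received compound in DMSO plus TGF-beta1 (added as a 0.25 ng/mL solution) and were incubated 5 h at 37 C. Beta-lactamase reporter activity was read after 2 h at room temperature with LiveBLAzer B/G FRET substrate (ex 405, em 460/530 nm).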
# [11] = Caspase-3/7 induction in CHO-K1 cells by small molecules, qHTS cell viability counter screen (AID 1346979); note: nearly all actives have a fitted effect of over 35% in size
# Procedure, shortened: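 Cytotoxicity counter screen run in parallel with the caspase-3/7 assay: CHO-K1 cells, 16hr compound treatment at 37C, then CellTiter-Fluor for 1hr before fluorescence reading.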
# [12] = target: Thyrotropin-releasing hormone receptor (Homo sapiens) (UniProt P34981); assay: qHTS assay to identify small molecule antagonists of the thyrotropin-releasing hormone receptor (TRHR) signaling pathway (AID 1346877; active = well fitted inhibition curve with a large enough effect in the repeat runs, not every such curve was filed as active; inconclusive = weak or mixed curves)
# Procedure, shortened: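 TRHR-expressing HEK293 cells were seeded, cultured 18 h at 37 °C, then loaded with calcium dye for 2 h. Compounds were pre-incubated 5 min at room temperature before 1 nM TRH (final) was added, and kinetic fluorescence was recorded for 3 min.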
# [13] = qHTS assay to identify small molecule agonists of the TGF-beta/Smad signaling pathway - cell viability counter screen (AID 1346829); note: nearly all actives have a fitted effect of over 45% in size
# Procedure, shortened: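 Here the cytotoxicity of library compounds is measured in SBE-bla HEK 293T cells treated for 5 hr, using CellTiter-Glo added to wells already read for the beta-lactamase reporter.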
# [14] = Caspase-3/7 induction in HepG2 cells by small molecules, qHTS assay (AID 1346978); note: nearly all actives have a fitted effect of over 15% in size
# Procedure, shortened: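 Caspase-3/7 induction was measured by Caspase-Glo 3/7 luminescence (30 min, room temperature) after a 17 hr compound exposure of wild-type HepG2 cells seeded at 2,000 per well and pre-incubated 5 hr.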
# Potency is the fitted concentration of half-maximal effect; tags give direction and shape of the fitted curve or compound fluorescence and quenching.
# Chain of UniProt P34981 (P34981 whole entry, looked up): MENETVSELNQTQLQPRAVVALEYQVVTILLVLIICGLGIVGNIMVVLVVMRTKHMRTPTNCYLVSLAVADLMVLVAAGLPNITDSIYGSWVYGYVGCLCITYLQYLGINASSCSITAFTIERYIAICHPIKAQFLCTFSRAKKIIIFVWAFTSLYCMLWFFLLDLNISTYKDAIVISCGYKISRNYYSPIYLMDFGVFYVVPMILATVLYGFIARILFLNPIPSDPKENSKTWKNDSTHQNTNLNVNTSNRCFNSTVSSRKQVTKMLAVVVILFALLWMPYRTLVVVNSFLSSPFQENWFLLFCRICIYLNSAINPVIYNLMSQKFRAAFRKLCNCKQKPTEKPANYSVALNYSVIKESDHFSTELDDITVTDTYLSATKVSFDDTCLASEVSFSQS
# Chain of UniProt P06401 (P06401 whole entry, looked up): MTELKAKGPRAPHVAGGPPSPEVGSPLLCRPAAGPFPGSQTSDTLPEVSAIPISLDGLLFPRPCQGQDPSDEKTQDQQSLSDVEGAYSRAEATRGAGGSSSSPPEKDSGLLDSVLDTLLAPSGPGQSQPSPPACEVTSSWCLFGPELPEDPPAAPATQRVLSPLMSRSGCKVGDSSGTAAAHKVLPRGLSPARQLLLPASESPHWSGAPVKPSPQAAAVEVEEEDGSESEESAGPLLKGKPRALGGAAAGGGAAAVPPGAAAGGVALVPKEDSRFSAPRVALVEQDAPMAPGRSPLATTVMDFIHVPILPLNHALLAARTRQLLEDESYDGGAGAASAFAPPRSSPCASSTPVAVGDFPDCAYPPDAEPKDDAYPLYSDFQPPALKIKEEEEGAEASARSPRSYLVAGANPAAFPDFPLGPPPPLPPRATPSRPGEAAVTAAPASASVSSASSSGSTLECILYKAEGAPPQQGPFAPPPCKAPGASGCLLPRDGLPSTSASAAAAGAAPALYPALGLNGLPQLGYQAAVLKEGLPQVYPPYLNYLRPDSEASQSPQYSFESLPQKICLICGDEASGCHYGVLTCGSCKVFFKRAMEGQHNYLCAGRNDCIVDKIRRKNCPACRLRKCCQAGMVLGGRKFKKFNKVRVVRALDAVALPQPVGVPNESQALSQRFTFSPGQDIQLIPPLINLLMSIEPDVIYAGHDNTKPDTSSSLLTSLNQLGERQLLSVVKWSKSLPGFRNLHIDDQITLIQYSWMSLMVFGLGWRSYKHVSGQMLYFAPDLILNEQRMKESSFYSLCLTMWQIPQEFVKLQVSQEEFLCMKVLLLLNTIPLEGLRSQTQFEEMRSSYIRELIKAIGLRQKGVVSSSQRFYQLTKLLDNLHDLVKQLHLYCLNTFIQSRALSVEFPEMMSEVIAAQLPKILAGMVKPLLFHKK
smiles,measurement,setting,value
CCOP(=O)(OCC)Oc1ccc([N+](=O)[O-])cc1,Potency,[1],"inconclusive: 22 µM [cytotoxic, partial curve] and inconclusive: 27.3 µM [cytotoxic, partial curve]"
same,Potency,[2],active: 17.4 µM and active: 17.2 µM
same,Potency,[3],"inconclusive: 1.93 µM [rising, full curve, poor fit]"
same,Potency,[4],"inconclusive: 55.6 µM [falling, partial curve, poor fit]"
CCCCCCCCCC(CC)c1ccc(S(=O)(=O)O)cc1 (configuration not stated),Potency,[5],"inconclusive: 68.6 µM [cytotoxic, partial curve, poor fit]"
same,Potency,[6],"inconclusive: 22.1 µM [cytotoxic, partial curve] and inconclusive: 19.5 µM [cytotoxic, full curve, poor fit]"
same,Potency,[4],"inconclusive: 24.5 µM [falling, partial curve, poor fit]"
same,Potency,[7],"inconclusive: 55 µM [cytotoxic, partial curve, poor fit] and inconclusive: 70.8 µM [cytotoxic, partial curve, poor fit]"
CC(C)(O)c1cnn2c(-c3ccc(F)c(-c4c(F)cccc4C#N)c3)cnc2n1,Potency,[1],"inconclusive: 68.6 µM [rising, single point]"
same,Potency,[2],inconclusive: 68.6 µM
same,Potency,[8],"inconclusive: 24.3 µM [rising, partial curve, poor fit]"
same,Potency,[3],"inconclusive: 27.3 µM [rising, partial curve, poor fit]"
same,Potency,[4],"inconclusive: 54.9 µM [rising, partial curve]"
same,Potency,[9],"inconclusive: 15.5 µM [activator, partial curve]"
same,Potency,[10],"inconclusive: 54.9 µM [rising, partial curve]"
same,Potency,[7],"inconclusive: 27.3 µM [cytotoxic, full curve]"
same,Potency,[11],"inconclusive: 61.1 µM [cytotoxic, single point]"
O=C(N[C@@H]1N=C(c2ccccc2F)c2cccc3c2N(CC3)C1=O)c1cc2ccccc2[nH]1,Potency,[1],"inconclusive: 7.5 µM [falling, full curve]"
same,"activity change, negative = inhibition",[2],inconclusive: -11.6% [at 42.5 µM]
same,Potency,[12],"inconclusive: 18.5 µM [inhibitor, single point]"
same,Potency,[9],active: 12 µM
Clc1ccc(COC(Cn2ccnc2)c2ccc(Cl)cc2Cl)cc1 (configuration not stated),Potency,[1],"inconclusive: 22.7 µM [cytotoxic, partial curve] and inconclusive: 17.2 µM [cytotoxic, full curve]"
same,Potency,[8],active: 18 µM and active: 27.2 µM and active: 6.68 µM
same,Potency,[3],active: 45.3 µM and active: 15.3 µM and active: 5.96 µM
same,Potency,[6],"inconclusive: 25.7 µM [cytotoxic, single point] and inconclusive: 54.7 µM [cytotoxic, single point]"
same,Potency,[13],"inconclusive: 54.7 µM [cytotoxic, single point] and inconclusive: 10.7 µM [cytotoxic, partial curve]"
same,Potency,[4],inconclusive: 54.7 µM [single point]
same,"activity, negative = inhibition",[10],inconclusive: -17.7% [at 35.3 µM]
same,Potency,[7],active: 45.3 µM and active: 48.4 µM and active: 26.6 µM
same,Potency,[11],active: 22.7 µM and active: 27.2 µM and active: 23.7 µM
Cc1ccc2cc3c(ccc4ccccc43)c3c2c1CC3,Potency,[1],inactive
same,"activity change, negative = inhibition",[2],inconclusive: -48.6% [at 42.5 µM]
same,Potency,[4],"inconclusive: 24.6 µM [activator, partial curve]"
same,Potency,[7],"inconclusive: 2.44 µM [cytotoxic, full curve]"
same,Potency,[14],active: 6.13 µM
Clc1ccccc1Cl,Potency,[5],inactive
same,Potency,[3],inactive
O=P(O)(O)CN(CP(=O)(O)O)CP(=O)(O)O,Potency,[1],inconclusive: 0.0004 µM
CCC[CH2][Sn]([Cl])([Cl])[CH2]CCC,Potency,[1],"inconclusive: 1.1 µM [cytotoxic, full curve] and inconclusive: 2.17 µM [cytotoxic, full curve]"
same,Potency,[8],active: 1.1 µM and active: 1.37 µM
same,Potency,[3],active: 1.1 µM and active: 1.37 µM
same,Potency,[6],active: 8.82 µM and active: 13.8 µM
same,Potency,[10],"inconclusive: 15.7 µM [rising, partial curve, poor fit] and inconclusive: 38.9 µM [rising, partial curve, poor fit]"
CCCCCCCCCCCCCCCC[N+](C)(C)C,Potency,[1],inconclusive: 61.1 µM [cytotoxic]
same,Potency,[2],"inconclusive: 33.1 µM [falling, single point] and inconclusive: 68.6 µM [falling, single point] and inconclusive: 33.5 µM [falling, single point]"
same,Potency,[3],"inconclusive: 33.1 µM [cytotoxic, single point] and inconclusive: 48.6 µM [cytotoxic, partial curve, poor fit] and inconclusive: 13.3 µM [cytotoxic, partial curve, poor fit]"
same,Potency,[6],"inconclusive: 14.9 µM [cytotoxic, partial curve] and inconclusive: 54.9 µM [cytotoxic, single point] and inconclusive: 23.9 µM [cytotoxic, partial curve]"
same,Potency,[13],"inconclusive: 26.8 µM [cytotoxic, partial curve]"
same,Potency,[4],"inconclusive: 21.1 µM [rising, partial curve] and inconclusive: 21.3 µM [rising, partial curve]"
same,Potency,[9],active: 27.5 µM
same,Potency,[7],"inconclusive: 33.1 µM [cytotoxic, single point] and inconclusive: 29.8 µM [cytotoxic, partial curve]"
O=[N+]([O-])c1cccc(O)c1,Potency,[2],inactive
